We go through three substances from paper PMC11381347.

By UniProt entry, the sequences of proteins in these tests, tags left out. Where a name states a change or a piece, a line headed by the entry shows the natural chain unless it says otherwise. Chains listed by the source or under a name are the forms on record and can include a tag or linker. Residues count along the entry.
UniProt O15047: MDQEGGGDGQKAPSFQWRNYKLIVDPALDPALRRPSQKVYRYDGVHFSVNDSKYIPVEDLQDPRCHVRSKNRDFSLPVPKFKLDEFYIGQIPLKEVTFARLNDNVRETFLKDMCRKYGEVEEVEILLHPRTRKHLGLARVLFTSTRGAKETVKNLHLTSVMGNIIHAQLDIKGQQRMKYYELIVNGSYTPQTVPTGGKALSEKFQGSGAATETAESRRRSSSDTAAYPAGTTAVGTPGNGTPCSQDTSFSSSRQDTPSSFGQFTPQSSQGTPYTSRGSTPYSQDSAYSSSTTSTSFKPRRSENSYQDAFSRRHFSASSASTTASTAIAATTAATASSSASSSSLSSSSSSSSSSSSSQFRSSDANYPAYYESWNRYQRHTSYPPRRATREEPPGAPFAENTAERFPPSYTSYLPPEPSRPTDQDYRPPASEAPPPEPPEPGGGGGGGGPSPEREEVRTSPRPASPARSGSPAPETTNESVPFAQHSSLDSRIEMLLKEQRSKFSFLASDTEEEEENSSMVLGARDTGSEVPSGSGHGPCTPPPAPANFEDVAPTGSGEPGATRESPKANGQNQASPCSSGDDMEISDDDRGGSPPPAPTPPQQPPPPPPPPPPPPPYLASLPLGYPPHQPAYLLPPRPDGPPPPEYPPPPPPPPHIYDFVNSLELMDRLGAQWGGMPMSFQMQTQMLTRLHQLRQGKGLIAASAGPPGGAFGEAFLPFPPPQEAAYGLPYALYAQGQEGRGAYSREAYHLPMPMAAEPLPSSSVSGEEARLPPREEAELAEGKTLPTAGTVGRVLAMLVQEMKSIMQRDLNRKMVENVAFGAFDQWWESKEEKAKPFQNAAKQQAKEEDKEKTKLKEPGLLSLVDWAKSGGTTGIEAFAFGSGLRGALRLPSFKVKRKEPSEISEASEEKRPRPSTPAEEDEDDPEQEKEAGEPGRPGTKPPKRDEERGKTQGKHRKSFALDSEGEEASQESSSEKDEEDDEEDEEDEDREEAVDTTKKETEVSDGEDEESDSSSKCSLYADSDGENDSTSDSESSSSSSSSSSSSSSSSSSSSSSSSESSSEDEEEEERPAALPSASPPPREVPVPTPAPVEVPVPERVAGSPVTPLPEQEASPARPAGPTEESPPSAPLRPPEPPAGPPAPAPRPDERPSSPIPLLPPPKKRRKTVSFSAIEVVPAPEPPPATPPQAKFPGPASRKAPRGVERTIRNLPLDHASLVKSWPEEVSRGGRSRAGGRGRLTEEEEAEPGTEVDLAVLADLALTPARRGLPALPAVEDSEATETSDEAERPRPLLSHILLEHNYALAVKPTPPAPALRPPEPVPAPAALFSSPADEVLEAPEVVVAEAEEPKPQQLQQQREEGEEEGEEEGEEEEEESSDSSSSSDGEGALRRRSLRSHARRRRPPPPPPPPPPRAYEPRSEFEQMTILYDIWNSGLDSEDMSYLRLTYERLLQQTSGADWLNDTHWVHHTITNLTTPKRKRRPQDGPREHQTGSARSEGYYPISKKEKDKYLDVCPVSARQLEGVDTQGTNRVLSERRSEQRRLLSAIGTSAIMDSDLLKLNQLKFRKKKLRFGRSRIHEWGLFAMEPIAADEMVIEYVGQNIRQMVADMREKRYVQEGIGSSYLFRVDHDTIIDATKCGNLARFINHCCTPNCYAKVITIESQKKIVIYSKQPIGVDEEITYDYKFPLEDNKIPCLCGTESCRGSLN
UniProt Q8NFC6: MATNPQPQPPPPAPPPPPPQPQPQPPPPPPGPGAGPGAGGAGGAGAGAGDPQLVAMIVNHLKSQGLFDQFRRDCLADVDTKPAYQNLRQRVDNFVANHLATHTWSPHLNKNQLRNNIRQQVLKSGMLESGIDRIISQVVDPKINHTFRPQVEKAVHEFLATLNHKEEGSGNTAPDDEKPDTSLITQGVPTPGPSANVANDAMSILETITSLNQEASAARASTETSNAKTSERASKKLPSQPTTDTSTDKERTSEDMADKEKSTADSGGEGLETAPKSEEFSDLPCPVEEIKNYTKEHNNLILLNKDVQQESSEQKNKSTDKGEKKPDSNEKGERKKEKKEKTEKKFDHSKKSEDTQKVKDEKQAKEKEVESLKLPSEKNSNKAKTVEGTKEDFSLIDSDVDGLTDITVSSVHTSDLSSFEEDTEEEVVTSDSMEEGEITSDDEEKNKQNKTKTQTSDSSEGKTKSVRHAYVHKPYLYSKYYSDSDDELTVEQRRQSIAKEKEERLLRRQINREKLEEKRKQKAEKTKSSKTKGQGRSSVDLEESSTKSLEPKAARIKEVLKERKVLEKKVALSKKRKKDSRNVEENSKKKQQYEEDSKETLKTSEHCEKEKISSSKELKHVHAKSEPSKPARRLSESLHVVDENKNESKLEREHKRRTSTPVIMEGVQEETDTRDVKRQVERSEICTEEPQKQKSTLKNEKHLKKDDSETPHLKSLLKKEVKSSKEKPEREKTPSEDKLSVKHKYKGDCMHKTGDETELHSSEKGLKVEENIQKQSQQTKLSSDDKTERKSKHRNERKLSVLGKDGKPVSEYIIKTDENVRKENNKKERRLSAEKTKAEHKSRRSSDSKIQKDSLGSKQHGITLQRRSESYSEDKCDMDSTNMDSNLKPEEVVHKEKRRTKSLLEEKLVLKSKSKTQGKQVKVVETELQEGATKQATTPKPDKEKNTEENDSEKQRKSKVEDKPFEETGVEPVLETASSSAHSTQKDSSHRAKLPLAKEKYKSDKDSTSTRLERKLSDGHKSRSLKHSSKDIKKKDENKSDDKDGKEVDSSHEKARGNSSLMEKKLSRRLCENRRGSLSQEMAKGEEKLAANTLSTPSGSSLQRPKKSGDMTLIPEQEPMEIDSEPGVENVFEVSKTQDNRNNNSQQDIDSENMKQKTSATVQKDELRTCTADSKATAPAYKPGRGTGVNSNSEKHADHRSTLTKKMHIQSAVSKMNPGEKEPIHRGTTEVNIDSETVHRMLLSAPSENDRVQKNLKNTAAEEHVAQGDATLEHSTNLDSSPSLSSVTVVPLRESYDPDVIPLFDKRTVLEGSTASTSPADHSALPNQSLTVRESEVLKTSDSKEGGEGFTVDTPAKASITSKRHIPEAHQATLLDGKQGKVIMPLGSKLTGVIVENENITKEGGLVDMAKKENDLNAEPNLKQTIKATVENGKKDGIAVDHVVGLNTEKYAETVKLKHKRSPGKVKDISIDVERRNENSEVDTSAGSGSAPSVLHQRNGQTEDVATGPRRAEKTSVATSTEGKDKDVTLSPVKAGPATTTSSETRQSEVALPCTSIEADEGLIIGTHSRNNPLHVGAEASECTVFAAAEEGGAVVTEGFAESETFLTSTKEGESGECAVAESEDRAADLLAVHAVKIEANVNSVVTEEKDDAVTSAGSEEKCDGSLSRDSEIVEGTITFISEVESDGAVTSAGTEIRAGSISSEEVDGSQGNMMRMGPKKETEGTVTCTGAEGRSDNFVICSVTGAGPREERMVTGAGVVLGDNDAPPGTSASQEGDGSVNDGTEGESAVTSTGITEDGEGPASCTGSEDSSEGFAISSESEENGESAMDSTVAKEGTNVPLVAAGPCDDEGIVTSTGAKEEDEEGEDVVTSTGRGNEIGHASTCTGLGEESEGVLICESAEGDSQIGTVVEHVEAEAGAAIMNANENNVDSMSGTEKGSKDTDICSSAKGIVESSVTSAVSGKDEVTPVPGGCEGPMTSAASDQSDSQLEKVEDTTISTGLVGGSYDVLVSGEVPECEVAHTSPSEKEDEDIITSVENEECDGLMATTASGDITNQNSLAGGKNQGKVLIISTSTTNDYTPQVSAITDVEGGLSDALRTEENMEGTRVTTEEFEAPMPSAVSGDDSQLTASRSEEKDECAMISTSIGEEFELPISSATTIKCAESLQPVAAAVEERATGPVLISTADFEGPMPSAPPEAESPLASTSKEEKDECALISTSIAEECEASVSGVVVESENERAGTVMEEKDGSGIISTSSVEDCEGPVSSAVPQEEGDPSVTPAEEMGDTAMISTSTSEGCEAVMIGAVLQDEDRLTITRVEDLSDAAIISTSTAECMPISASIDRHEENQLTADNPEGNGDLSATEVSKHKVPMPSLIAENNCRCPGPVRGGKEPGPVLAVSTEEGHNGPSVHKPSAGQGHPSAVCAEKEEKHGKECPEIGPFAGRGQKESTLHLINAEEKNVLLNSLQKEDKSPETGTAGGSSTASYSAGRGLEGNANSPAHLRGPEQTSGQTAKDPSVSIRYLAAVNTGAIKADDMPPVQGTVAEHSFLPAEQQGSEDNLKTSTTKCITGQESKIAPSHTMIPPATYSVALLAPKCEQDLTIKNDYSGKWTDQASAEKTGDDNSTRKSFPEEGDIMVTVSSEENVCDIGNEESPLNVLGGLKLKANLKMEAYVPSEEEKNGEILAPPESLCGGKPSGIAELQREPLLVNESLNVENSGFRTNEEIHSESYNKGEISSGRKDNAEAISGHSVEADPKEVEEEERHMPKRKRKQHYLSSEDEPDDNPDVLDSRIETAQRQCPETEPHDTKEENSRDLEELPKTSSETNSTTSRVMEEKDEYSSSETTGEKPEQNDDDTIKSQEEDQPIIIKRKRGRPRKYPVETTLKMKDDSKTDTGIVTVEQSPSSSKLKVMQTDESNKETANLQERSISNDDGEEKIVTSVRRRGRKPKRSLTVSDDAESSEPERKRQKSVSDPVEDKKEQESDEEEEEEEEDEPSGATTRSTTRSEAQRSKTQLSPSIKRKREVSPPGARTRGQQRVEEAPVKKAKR
BOD1L N200 (1–200aa), expressed in 293T cells: residues 1-200 of Q8NFC6
BOD1L N200 with a W104A mutation, expressed in 293T cells (Q8NFC6, form named): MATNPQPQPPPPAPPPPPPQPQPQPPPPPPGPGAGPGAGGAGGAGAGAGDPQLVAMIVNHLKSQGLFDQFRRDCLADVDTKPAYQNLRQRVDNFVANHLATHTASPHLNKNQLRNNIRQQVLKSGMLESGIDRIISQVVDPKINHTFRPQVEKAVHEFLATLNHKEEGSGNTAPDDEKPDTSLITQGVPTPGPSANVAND
UniProt O75909: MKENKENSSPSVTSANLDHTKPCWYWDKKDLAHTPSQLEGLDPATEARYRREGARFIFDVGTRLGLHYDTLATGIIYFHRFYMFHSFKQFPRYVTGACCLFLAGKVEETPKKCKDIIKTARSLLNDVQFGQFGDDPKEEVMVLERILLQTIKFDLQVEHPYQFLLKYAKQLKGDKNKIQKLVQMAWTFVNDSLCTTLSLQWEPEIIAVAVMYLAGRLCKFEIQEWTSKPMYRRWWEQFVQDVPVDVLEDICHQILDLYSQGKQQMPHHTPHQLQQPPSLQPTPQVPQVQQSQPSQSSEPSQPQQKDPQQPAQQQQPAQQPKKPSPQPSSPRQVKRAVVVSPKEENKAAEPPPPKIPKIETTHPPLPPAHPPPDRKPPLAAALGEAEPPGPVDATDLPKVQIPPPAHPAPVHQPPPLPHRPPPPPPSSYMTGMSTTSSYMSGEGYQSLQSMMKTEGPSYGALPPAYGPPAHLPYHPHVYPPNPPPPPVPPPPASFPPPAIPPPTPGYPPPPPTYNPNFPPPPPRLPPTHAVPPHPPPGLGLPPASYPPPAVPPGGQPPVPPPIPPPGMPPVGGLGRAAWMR

Experiment [1] addresses SETD1A (wild type) (human) (UniProt O15047). Kind of experiment: co-IP; 293T cells transfected with tagged constructs; SETD1A constructs precipitated (anti-FLAG M2 or anti-HA agarose, overnight 4 °C), BOD1L and cyclin K detected by western blot; washes with 0.5 M STEN buffer (500 mM NaCl, 0.2% NP-40).
Experiment [2] deals with BOD1L, full-length human (human) (UniProt Q8NFC6). The experiment is described as follows: co-IP; as the other co-IPs, lysate treated with 2 mM MgCl2 and 100 U Benzonase for 2 h at 4 °C to remove nucleic acid.
In experiment [3] the target is BOD1L N200 (1–200aa), expressed in 293T cells (human) (UniProt Q8NFC6). The experiment is described as follows: co-IP; 293T cells; BOD1L constructs precipitated (anti-FLAG M2 or anti-HA agarose, overnight 4 °C), SETD1A detected by western blot; washes with 0.5 M STEN buffer (500 mM NaCl, 0.2% NP-40). (In general: In western blotting, separated proteins are transferred to a membrane and probed.)

Experiment [4] has as its target BOD1L N200 with a W104A mutation, expressed in 293T cells (human) (UniProt Q8NFC6). Described as above.

Results are given in words; binding and its absence hold for the method and conditions named. Binding seen in cells or lysates may run through a third protein. Some results given as binding are weak or reduced against the parent protein; the word gives no strength.

For the substance “BOD1L, full-length human (from UniProt Q8NFC6 1-3051)”, in experiment [1], the binding result was “binds”.
“SETD1A (wild type) (from UniProt O15047 1-1707)”: the binding result in experiment [2] is listed as “binds”; in experiment [3], “binds”; in experiment [4] it was “no binding”.
As to cyclin K (from UniProt O75909 1-580), the binding result in experiment [1] is given as “binds”.
